Among all 52,000 compounds or so, about 4,300 (8.3%) were called active. No stated cut-off is given here; in the data, active means survival mostly below about 52% (no sharp cut-off); inactive means mostly above about 56%. This is one part of the list.

For the assay, the system named is DeltatarO mutant. Nature of the assay: growth inhibition of S. aureus wild type versus tarO mutant, primary screen, teichoic acid synthesis inhibitors, RN4220, OD600 (AID 463173). The following applies: OD600, 18 h, stronger effect = lower value, screened at 18.75 µg/mL (by protocol).
`CCOc1ccc(NC(=O)NC(C)c2c(-n3cccc3)sc(C)c2C)cc1` (centres undefined): the survival was inactive: 60%. To `O=C(Cn1nc(N2CCN(c3ccccc3)CC2)ccc1=O)NCc1cccc(Cl)c1` belongs inactive: 109%; to `Cc1cccc(OCCCCn2nnc3sc4c(c3c2=O)CCC(C)C4)c1` (centres undefined), inactive: 76%. To `CCOc1ccccc1CNC(=O)CN1C(=O)CCCc2ccccc21` belongs inactive: 86%; to `N#Cc1c(SCC(=O)Nc2nccs2)nc(N2CCOCC2)c2c1CCCC2`, inactive: 112%. To `Cc1ccc(-n2ncc3c(NCCc4ccccc4)ncnc32)cc1C` belongs inactive: 115%. For `Cc1ccc(C)c(CN2CCC(CNC(=O)Cn3ncc4c([nH]c5ccccc54)c3=O)CC2)c1`, the survival is inactive: 70%. On to `CCn1c2ccccc2c2nnc(N3CCN(c4cccc(C)c4C)CC3)nc21`, for which the survival is inactive: 77%. Take `O=C(Cc1cccs1)NC1CC(=O)N(c2ccccc2)C1` (centres undefined): the survival is inactive: 88%. `CCc1cccc(C)c1NC(=O)CN1CCCN(Cc2ccc(C)cc2)S1(=O)=O`: the survival is active: 8%. For `COc1ccc(-c2c(C)nn3c(C(F)(F)F)cc(-c4ccc(Br)cc4)nc23)cc1`, the survival was inactive: 88%. On to `Cc1cc(C)n2c(Nc3c(C)cccc3C)c(-c3ccsc3)nc2n1`, for which the survival is inactive: 72%. To `CCOC(=O)c1cc(-c2ccc(F)cc2)n(CC(=O)NC2CCCCC2)c1C` belongs inactive: 66%; to `O=C(COc1ccccc1)Nc1ccc(C(=O)OCc2cc(=O)n3nc(C4CC4)sc3n2)cc1`, inactive: 76%. For `COc1ccc(-n2c(/C=C/c3cc(OC)c(OC)cc3OC)nc3cc4ccccc4cc3c2=O)cc1Cl`, the survival was inactive: 115%.

Take `CCN(CC)CCNC(=O)C1CCN(S(=O)(=O)c2c(C)noc2/C=C/c2ccccc2F)CC1`: the survival was inactive: 73%. For the molecule `Cc1ccc(OCCSc2nc3ccc(NC(=O)COc4ccc(F)cc4)cc3s2)cc1`, the survival is inactive: 90%. For the molecule `O=C(O)Cn1c2ccccc2c2n[nH]c(=S)nc21`, the survival is inactive: 108%.

On to `CCOc1ccc(C(=O)Nc2ccc(-c3nc4cc(CC)ccc4o3)cc2)cc1`, for which the survival is inactive: 61%.

As to `O=C(c1cc2c(=O)[nH]c3ccccc3c2s1)N1CCN(c2ccc(F)cc2)CC1`, the survival was inactive: 51%. To `CCOc1ccc(-c2ccc(NS(=O)(=O)c3cc(C)c(C)cc3C)cc2)nn1` belongs inactive: 94%; to `Cc1ccccc1CN1CCc2nc(Nc3ccc4c(c3)OCCO4)ncc2C1`, inactive: 86%; to `CCCOc1ccc(/C=N/NC(=O)CN2CCCCC2)cc1`, inactive: 98%. Regarding `CCN(C(=O)COc1cc(=O)n(C)c2ccccc12)c1cccc(C(F)(F)F)c1`, the survival was inactive: 57%. To `Cc1coc2c(C)c3oc(=O)c(CC(=O)N4CCCCC4)c(C)c3cc12` belongs inactive: 79%. To `Cc1cc(C)cc(-n2c(SCC(=O)Nc3nnc(C)s3)nc3c([nH]c4ccccc43)c2=O)c1` belongs inactive: 68%. To `COC(=O)c1ccc(NC(=O)Cc2coc3cc(C)ccc23)cc1` belongs inactive: 91%; to `COc1ccc(-c2nc3nc(C)cc(Nc4ccc(C(C)=O)cc4)n3n2)cc1`, inactive: 54%.

For the molecule `COc1ccccc1NC(=O)Cn1c(=O)n(Cc2ccccc2)c(=O)c2ccccc21`, the survival was inactive: 75%. In the case of `CCN(CC)C(=O)CSc1nc2ccccc2c(=O)n1CC`, the survival was inactive: 62%. For the molecule `CCn1c2ccccc2c2cc(C3C(C#N)=C(N)Oc4n[nH]c(C(C)C)c43)ccc21` (centres undefined), the survival is active: 3%. Regarding `COc1cccc(NC(=O)c2oc3ccccc3c2NC(=O)C23CC4CC(CC(C4)C2)C3)c1`, the survival was inactive: 75%.

As for `COc1ccc(CN2COc3ccc4c(C)cc(=O)oc4c3C2)cc1`, the survival is inactive: 73%. To `COc1cccc2c1Oc1nc(-c3ccccc3)nc(SCC(=O)N3CCCCC3)c1C2` belongs inactive: 100%. As to `O=C(CCn1c(=O)c2cccn2c2ccc(F)cc21)NCCc1ccccc1Cl`, the survival was inactive: 52%. To `COC(=O)c1ccc(NC(=O)Nc2nnc(N(C)C3CCCCC3)s2)cc1` belongs inactive: 82%; to `CCCOc1ccc(Nc2nc(SC)ncc2C(=O)OCC)cc1`, inactive: 65%; to `COc1ccccc1CNC(=O)Cn1c(-c2cccs2)cc2cc(F)ccc21`, inactive: 70%. To `CCOc1ccccc1NC(=O)Cn1nc2c3cc(F)ccc3n(Cc3cccc(C)c3)cc-2c1=O` belongs inactive: 72%; to `O=C(CCS(=O)(=O)c1cc2c3c(c1)CCN3C(=O)CC2)NCc1ccc(Cl)cc1`, inactive: 71%; to `COc1ccc(/C=C/c2nc(C#N)c(NC3CCCCC3)o2)cc1OC`, active: 36%. For `COC(=O)CSc1ccc2nnc(CCNS(=O)(=O)c3ccc(C)cc3)n2n1`, the survival was inactive: 96%. To `CCOC(=O)C1=C(CN2CCN(c3ccccc3F)CC2)NC(=O)NC1c1ccc(OC)cc1` (centres undefined) belongs inactive: 70%.

For `CCc1cccc(C)c1Nc1c(-c2cccc(O)c2)nc2cnccn12`, the survival is inactive: 62%.

`Cc1ccc(CNC(=O)CCc2c(C)nn(-c3ccc(N4CCCC4)nn3)c2C)cc1`: the survival is inactive: 112%. To `CCc1cc(S(=O)(=O)n2ccnc2)ccc1OC` belongs inactive: 65%. To `COc1ccc(N2CCN(C(=O)Cc3noc4ccc(C)cc34)CC2)cc1` belongs active: 42%. On to `CCc1ccc(NC(=O)Cn2ccn(-c3cccc(Cl)c3)c(=O)c2=O)cc1`, for which the survival was inactive: 61%. Regarding `COc1ccc(C(=O)N2CCC(c3ccncc3)CC2)cc1OC`, the survival was active: -5%.

As for `O=C(CN1C2=NCCCN2c2ccccc21)c1cccs1`, the survival is inactive: 81%.

For `Cc1ccc(CN2CCc3nc(N4CCN(C)CC4)ncc3C2)cc1`, the survival was inactive: 80%. Turning to `COc1cccc(NC(=O)CCc2nc(-c3cc(OC)c(OC)c(OC)c3)no2)c1`, the survival is inactive: 73%. To `COc1ccc(CCNC(=O)c2cc(-c3ccc(Cl)cc3)on2)cc1OC` belongs inactive: 64%; to `Cc1ccc(C)c(NC(=O)C(=O)NCCc2csc(-c3cccc(F)c3)n2)c1`, inactive: 84%. Take `Cn1c(=O)cc(SCC(=O)Nc2cccc(C#N)c2)c2ccc(Cl)cc21`: the survival was inactive: 84%. Regarding `CCOC(=O)c1ccc(NC(=O)c2cc3c(=O)n(C)c4ccccc4c3n2C)cc1`, the survival is inactive: 71%.

With `COc1cc2c(C(=O)N3CCN(c4ccc(C)cc4)C(C)C3)cn(CC(C)C)c(=O)c2cc1OC` (centres undefined), the survival is inactive: 47%. In the case of `Cc1nc2ccccn2c(=O)c1NC(=O)c1ccccc1Cl`, the survival is inactive: 131%. To `Cc1oc2c(c1C(=O)Nc1ccc(Cl)cc1F)C1=NCCN1C=N2` belongs inactive: 86%.

Source of the values: PubChem BioAssay AID463173 (ICCB-Longwood Screening Facility, Harvard Medical School, 2010).
